# Assay results as given in paper PMC4336329 (PLoS ONE, 2015).
# Among all 310,000 compounds or so, about 14,000 (4.5%) showed an effect of 50% or more. The effect is printed as a negative number. Some of the results follow.
# Target: human ether-à-go-go-related gene (hERG) potassium channel (human, UniProt Q12809)
# Test: primary screen, population patch clamp on CHO cells stably expressing hERG
# 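Note: peak tail current of the secondary pulse compared with the same well before compound.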
# Chain of human ether-à-go-go-related gene (hERG) potassium channel (Q12809 whole entry, looked up): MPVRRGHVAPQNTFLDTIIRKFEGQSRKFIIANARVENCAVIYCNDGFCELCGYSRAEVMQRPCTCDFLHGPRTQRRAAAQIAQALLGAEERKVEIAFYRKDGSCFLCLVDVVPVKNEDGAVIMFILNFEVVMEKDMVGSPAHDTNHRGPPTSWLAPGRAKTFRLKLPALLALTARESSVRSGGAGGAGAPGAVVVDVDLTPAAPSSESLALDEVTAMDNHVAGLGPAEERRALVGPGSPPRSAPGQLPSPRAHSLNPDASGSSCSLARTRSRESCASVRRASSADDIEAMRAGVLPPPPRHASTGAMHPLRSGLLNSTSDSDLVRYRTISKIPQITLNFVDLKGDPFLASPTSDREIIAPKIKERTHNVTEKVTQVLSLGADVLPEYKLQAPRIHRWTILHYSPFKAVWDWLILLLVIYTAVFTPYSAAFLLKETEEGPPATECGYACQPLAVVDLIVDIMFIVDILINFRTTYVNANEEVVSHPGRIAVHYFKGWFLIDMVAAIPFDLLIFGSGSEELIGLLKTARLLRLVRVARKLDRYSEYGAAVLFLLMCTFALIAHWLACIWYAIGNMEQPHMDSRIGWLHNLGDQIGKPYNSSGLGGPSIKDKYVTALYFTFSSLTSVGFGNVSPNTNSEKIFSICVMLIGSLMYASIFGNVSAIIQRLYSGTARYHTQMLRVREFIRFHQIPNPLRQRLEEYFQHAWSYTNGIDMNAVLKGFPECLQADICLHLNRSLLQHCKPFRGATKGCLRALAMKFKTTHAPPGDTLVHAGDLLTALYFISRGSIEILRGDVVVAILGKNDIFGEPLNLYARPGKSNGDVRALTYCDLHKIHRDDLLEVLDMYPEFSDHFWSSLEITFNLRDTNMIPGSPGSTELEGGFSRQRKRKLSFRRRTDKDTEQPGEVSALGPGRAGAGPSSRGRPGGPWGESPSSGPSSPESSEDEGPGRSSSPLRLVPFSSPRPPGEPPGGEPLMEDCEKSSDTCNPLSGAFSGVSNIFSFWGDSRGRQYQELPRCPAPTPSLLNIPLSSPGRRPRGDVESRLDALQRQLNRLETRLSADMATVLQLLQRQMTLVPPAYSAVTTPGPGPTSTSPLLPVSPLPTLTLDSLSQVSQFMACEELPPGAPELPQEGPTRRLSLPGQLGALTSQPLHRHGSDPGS
row,Structure (SMILES),"hERG current change (%, negative = inhibition) at 10uM"
1,O=C(CN1CCN(Cc2ccccc2)CC1)N/N=C/c1cccs1,-22.9%
2,Cc1ccc(C)c(NC(=S)N/N=C2/CCCCc3ccccc32)c1,2.67%
3,Cc1ccc(C2CC(c3cccc(C)c3)n3ncnc3N2)cc1 (centres unmarked),2.15%
4,Cc1cc(=O)n2nc(N3CCCC(C(=O)NC(C)c4ccccc4)C3)sc2n1 (centres unmarked),9.64%
5,NS(=O)(=O)c1ccc(NC(=O)CSc2ccccc2)cc1,-10.8%
6,O=C(NCCCN1CCCCC1)C1CCC(=O)N1CCc1ccccc1 (centres unmarked),22.2%
7,CCOC(=O)C1=C(C)NC(=O)NC1,-3.56%
8,Cc1noc(C)c1COC(=O)CNC(=O)c1cccc(F)c1,8.98%
9,CS(=O)(=O)N(CC(=O)N1CCOCC1)c1cc(Cl)ccc1Cl,7.37%
10,O=C(O/N=C1\CCCc2ccccc21)c1cccc(Cl)c1,-1.03%
11,CCN(Cc1cnn(C)c1)C(=O)c1cc(COc2ccc(F)cc2F)on1,-3.7%
12,COc1cc2c(cc1OC)C(=O)Cc1ccc3c(c1CN(C)CC2)OCO3,-54.1%
13,COc1ccc(C(=O)N/C(=C\c2cn(S(=O)(=O)N(C)C)c3ccccc23)C(=O)N2CCN(C)CC2)cc1,-50.8%
14,COc1ccc(-c2nc3cnccn3c2Nc2ccc(C)cc2)cc1,-10.7%
15,COc1cccc(NC(=O)C2CCN(S(C)(=O)=O)CC2)c1,-7.92%
16,CCn1ccnc1C(O)c1ccc(N(C)C)cc1 (centres unmarked),19.4%
17,COc1ccc(N2CCN(c3ncccn3)CC2)cc1,5.64%
18,CN(c1ccccc1)S(=O)(=O)c1ccc(C(=O)OCC(=O)NCc2cccs2)cc1,-9.97%
19,CC(=O)c1c(C)[nH]c(C(=O)Nc2nc(-c3ccccc3)c(C)s2)c1C,-10.2%
20,CS(=O)(=O)c1ccc(C(=O)OCC(=O)NC(=O)Cc2ccccc2)cc1,-4.76%
21,O=C(CC(Nc1ccc(F)cc1)C(=O)OCC(=O)c1cccs1)c1ccccc1 (centres unmarked),2.11%
22,FC(F)(F)c1cccnc1Oc1ccc(C2=NCCS2)cc1,-5.76%
23,COc1ccc(CNC(=O)C(C)n2nc(C)c3c(C)n(-c4ccccc4)nc3c2=O)c(OC)c1 (centres unmarked),-8.08%

row,Structure (SMILES),"hERG current change (%, negative = inhibition) at 10uM"
1,COc1ccc(C2=NC(C)(C)Cc3cc(OC)c(OC)cc32)cc1OC.Cl,-35.7%
2,O=C(CSc1nc2ccccc2n1CC(=O)NCc1ccccc1)NCc1ccco1,-20.2%
3,O=C(NCCN1CCOCC1)c1ccc(Cl)cc1O,14.5%
4,O=C(NC(N1CCOCC1)C(Cl)(Cl)Cl)c1ccccc1Cl (centres unmarked),-0.226%
5,COc1ccccc1NC(=O)CSc1nc2nccnc2c(=O)n1Cc1cccs1,-69.9%
6,O=C(Cc1csc(-c2ccccc2)n1)NCc1ccco1,-1.66%
7,O=C1c2ccccc2C2=Nc3ccccc3SC(c3ccccc3F)C12 (centres unmarked),-23%
8,CN(C)c1ccc(NC2=C([N+](=O)[O-])CS(=O)(=O)C2)cc1,0.495%
9,O=C(Nc1ccccc1-c1nc2ccccc2s1)c1cccnc1Cl,8.07%
10,COc1ccc(C(=O)N2CCC(n3nccc3NC(=O)C3CC3)CC2)c(OC)c1OC,24.7%
11,CC(=O)C1=C(O)C(=O)N(c2ccc(Br)cn2)C1c1ccc(Br)cc1 (centres unmarked),11.3%
12,O=C1CCC(C(=O)N(Cc2cccs2)C2(C(=O)NC3CCCCC3)CCCCC2)N1 (centres unmarked),9.76%
13,CSc1cccc(NS(=O)(=O)c2ccc3c(c2)CCN3C(C)=O)c1,8.02%
14,CS(=O)(=O)N(CC(=O)NCc1ccco1)c1ccccc1Cl,0.699%
15,Cc1cc(C)c(S(=O)(=O)Nc2ncn[nH]2)cc1C,42.8%
16,Fc1ccccc1CSc1nnc(Cn2cnc3ccccc32)n1-c1ccccc1,-30.2%
17,CCOc1cccc2cc(C(=O)N3CC(C)OC(C)C3)c(=O)oc12 (centres unmarked),5.99%
18,Cc1ccc(C(=O)CSc2nccn2-c2ccccc2)cc1,-6.39%
19,COCCNC(=O)c1ccc(-c2csc(C)n2)cc1,13.2%
20,CC(C)(C)c1ccc(OCCOc2ccc(C(C)(C)C)cc2NC=O)c(NC=O)c1,21.1%
21,Cc1cc(-n2cnc3c(=O)[nH]cnc32)ccc1N,15%
22,COC(=O)N/N=C/c1cc(Cl)cc(Cl)c1OCc1ccccc1F,14.4%
23,FC(F)(F)c1cccc(N2Cc3ccccc3C2)c1,6.28%

row,Structure (SMILES),"hERG current change (%, negative = inhibition) at 10uM"
1,CC1=C(CC(=O)O)c2cc(F)ccc2/C1=C/c1ccc(S(C)(=O)=O)cc1,11.5%
2,CC1CCC2(CC1)NC(=O)N(CC(=O)c1ccc(CNC(=O)C(C)(C)C)s1)C2=O (centres unmarked),-10.9%
3,O=C(CSc1nc2ccccc2c(=O)n1CCCN1CCOCC1)Nc1ccc2c(c1)OCO2,-43.6%
4,O=C(NCc1ccccc1)C1CC(=O)N(c2ccc(OCC(=O)N3CCOCC3)cc2)C1 (centres unmarked),14.7%
5,CC(C)N(C(=O)Cn1c(SCC(=O)NCc2ccc3c(c2)OCO3)nc2ccccc21)C(C)C,-34.1%
6,Cc1c(N2C(=O)CSC2c2ccco2)c(=O)n(-c2ccccc2)n1C (centres unmarked),0.106%
7,OCC1N=C(c2ccccn2)OC1c1ccccc1 (centres unmarked),13.6%
8,COc1cccc(Cn2c(=O)ccc3ccccc32)c1,5.15%
9,COc1ccc(NC(=O)c2ccc3c(c2)C(=O)N(Cc2cccnc2)C3=O)c(OC)c1,-11.1%
10,O=C(N/N=C/c1ccc(OCc2ccccc2)cc1)c1ccc(O)cc1,22.4%
11,CC(=O)C1=C(C)NC(SCC(N)=O)=C(C#N)C1CC(C)C (centres unmarked),14.5%
12,COCCNC(=O)Cn1nc(C(F)(F)F)cc1C,-9.01%
13,Cc1nc(Nc2nc3c(c(=O)[nH]2)CCC3)nc2ccccc12,-10.2%
14,COC(=O)Cc1ccc(Oc2ncc(C(F)(F)F)cc2Cl)cc1,12.3%
15,COc1cccc(/C=N/Nc2nc(C)cc(=O)[nH]2)c1OC,13.5%
16,CCCCCC(=O)Nc1ccccc1N1CCOCC1,-20.8%
17,CN(C)c1ccc(P(=O)(OC2CCCCC2)C(Nc2ccccc2)c2cccnc2)cc1 (centres unmarked),-9.86%
18,O=[N+]([O-])c1ccc(/C=N/NC(=S)Nc2ccccc2F)o1,7.94%
19,N#Cc1cc(-c2ccccc2)c[nH]c1=O,9.27%
20,CC(C)(CO)CNC(=O)CCc1nnc(Cc2ccc(-c3ccccc3)cc2)o1,-1.98%
21,O=C(CN1C(=O)NC(c2ccccc2)(c2ccccc2)C1=O)NCCNCCO,24.1%
22,O=C(COC(=O)C1CCC1)Nc1cccc(Cl)c1,-3.08%
23,Cc1ccc(N(Cc2ccc(C(=O)Nc3ccccc3C(=O)NCc3ccco3)cc2)S(C)(=O)=O)cc1C,9.61%

row,Structure (SMILES),"hERG current change (%, negative = inhibition) at 10uM"
1,CCn1ccnc1CNC(=O)CC1C(=O)NCCN1CCCc1ccccc1 (centres unmarked),15.2%
2,Cn1cc(C(=O)NCc2ccc(Cl)cc2)c(=O)c2cc(S(=O)(=O)N3CCOCC3)ccc21,17.8%
3,CCc1cc(=O)oc2cc(OCC(=O)N3C[C@H]4C[C@@H](C3)c3cccc(=O)n3C4)ccc12,8.87%
4,CCOCCn1c(N(C)Cc2ccccc2)nc2c1c(=O)[nH]c(=O)n2C,-7.27%
5,CCOC(=O)N/N=C/c1ccccc1OCc1ccc(Cl)cc1,31.3%
6,Cc1cc(C(C)(C)C)oc1C(=O)O,27.6%
7,CC(=O)C1=C(O)C(=O)N(Cc2ccco2)C1c1ccc2c(c1)OCO2 (centres unmarked),1.14%
8,O=C(NNc1nc2ccc(F)cc2s1)c1cccc(F)c1,40.4%
9,O=C(COC(=O)C12CC3CC(CC(O)(C3)C1)C2)N1CCN(S(=O)(=O)c2ccc(Cl)cc2)CC1,5.85%
10,CCc1nc2ccccc2nc1N1CCN(S(=O)(=O)c2ccc(Cl)cc2)CC1,9.99%
11,C=CCn1c(=O)c(C(=O)NC(C)c2ccccc2)c(O)c2ccccc21 (centres unmarked),18.3%
12,c1ccc(CSc2nnc(-c3ccccn3)n2-c2ccccc2)cc1,-10.6%
13,CSCCC(NC(=O)c1ccccc1Br)C(=O)N1CCCC(C(F)(F)F)C1 (centres unmarked),-22.3%
14,Cn1nccc1C(=O)N/N=C/c1c(O)ccc2ccccc12,10.6%
15,CCC(C)(O)c1[nH]c2ccc(C#N)cc2c1C (centres unmarked),2.68%
16,O=C(COC(=O)/C=C/c1ccco1)Nc1ccccc1,2.85%
17,CCc1ccc(S(=O)(=O)Nc2ccc(O)c3ccccc23)cc1,-5.31%
18,O=[N+]([O-])c1ccc(-c2ccc(/C=N/Nc3nc(N4CCCC4)nc(N4CCCC4)n3)o2)cc1,14%
19,O=C(/C=C/c1cccc(F)c1)NCc1ccc2c(c1)OCO2,16.4%
20,COCCn1c(C)cc(C(=O)COC(=O)c2n[nH]c3ccccc23)c1C,-12%
